From article PMC7744066
Like-named read-outs stand apart in the source and are kept apart here. No constants are given. Whether binding was seen depends on the method and setting. For some assays here: In cells and extracts the contact can be indirect. Some results given as binding are weak or reduced against the parent protein; the word gives no strength. For some assays here: Tags and fused reporters may be left off the sequences shown. One block for each molecule: values may come before it.

By UniProt entry, the sequences of proteins in these tests, tags left out. Where a name states a change or a piece, a line headed by the entry shows the natural chain unless it says otherwise.
UniProt P31749: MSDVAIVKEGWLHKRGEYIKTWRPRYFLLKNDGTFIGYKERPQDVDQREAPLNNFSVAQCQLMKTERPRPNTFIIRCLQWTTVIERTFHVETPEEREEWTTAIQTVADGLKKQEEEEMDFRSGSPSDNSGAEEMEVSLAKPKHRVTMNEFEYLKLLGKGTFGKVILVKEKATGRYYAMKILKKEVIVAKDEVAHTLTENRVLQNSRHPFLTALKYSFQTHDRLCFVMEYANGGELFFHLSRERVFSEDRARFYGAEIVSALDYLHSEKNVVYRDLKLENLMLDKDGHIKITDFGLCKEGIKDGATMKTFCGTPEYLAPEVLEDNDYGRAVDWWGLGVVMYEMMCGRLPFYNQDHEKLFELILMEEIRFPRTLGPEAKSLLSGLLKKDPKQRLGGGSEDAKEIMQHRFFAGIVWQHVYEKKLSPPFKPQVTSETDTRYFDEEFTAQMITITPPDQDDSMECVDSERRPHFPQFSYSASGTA
UniProt P31750: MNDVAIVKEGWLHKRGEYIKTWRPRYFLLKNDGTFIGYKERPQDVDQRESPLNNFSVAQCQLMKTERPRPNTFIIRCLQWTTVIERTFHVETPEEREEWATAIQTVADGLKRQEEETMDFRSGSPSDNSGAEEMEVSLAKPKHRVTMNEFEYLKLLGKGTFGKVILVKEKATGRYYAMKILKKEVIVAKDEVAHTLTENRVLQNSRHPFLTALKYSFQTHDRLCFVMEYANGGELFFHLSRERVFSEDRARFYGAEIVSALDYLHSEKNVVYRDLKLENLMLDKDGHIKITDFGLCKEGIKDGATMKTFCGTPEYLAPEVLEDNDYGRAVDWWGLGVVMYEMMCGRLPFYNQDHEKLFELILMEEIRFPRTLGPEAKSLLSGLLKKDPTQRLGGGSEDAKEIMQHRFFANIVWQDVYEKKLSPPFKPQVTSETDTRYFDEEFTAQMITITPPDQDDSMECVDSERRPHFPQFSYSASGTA

Legend:
Flag-Aldob [1] = target: T1, Flag-Aldob (UniProt P05062); test: co-IP; lysates of Huh7 cells transfected with the indicated constructs (and siRNAs) or of LM3-Aldob cells; anti-Flag or anti-Myc affinity gel or anti-Akt1 antibody with Protein A/G beads, overnight at 4°C, washed 4 times; in some panels cells serum-starved then 0.1 μM insulin or 100 ng/ml EGF, or MK2206 (1 μM) for 24 hours
T1 sequence: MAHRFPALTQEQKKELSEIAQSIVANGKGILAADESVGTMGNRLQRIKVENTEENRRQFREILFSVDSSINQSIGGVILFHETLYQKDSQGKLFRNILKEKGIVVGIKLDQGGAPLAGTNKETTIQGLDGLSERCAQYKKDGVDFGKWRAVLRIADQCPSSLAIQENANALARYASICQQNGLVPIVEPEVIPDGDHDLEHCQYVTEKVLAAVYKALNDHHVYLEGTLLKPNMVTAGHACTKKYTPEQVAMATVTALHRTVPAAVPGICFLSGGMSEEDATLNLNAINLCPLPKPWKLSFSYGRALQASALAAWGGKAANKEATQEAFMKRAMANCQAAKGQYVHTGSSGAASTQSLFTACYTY

[2] = target: T2, Aldob stably expressed in LM3 cells (LM3-Aldob) (UniProt P05062); test: as above
T2 sequence: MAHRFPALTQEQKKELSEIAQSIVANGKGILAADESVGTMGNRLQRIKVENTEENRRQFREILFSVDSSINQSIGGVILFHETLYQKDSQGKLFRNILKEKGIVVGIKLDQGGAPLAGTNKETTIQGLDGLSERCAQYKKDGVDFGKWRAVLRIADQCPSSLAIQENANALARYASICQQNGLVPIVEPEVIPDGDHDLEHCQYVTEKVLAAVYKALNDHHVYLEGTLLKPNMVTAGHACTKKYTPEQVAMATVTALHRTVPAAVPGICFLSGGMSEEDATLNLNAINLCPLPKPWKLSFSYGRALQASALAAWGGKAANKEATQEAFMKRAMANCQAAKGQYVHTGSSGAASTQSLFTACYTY

Myc-Akt1 = Myc-Akt1 (UniProt P31749); test: co-IP; IP analysis with whole cell lysate of Myc-Akt1-transfected Huh7 cells and recombinant His-Aldob (WT, point mutants or truncated mutants); only the binder purified
Flag-Aldob [3] = target: T1, Flag-Aldob; test: co-IP; lysates of Huh7 cells transfected with the indicated constructs (and siRNAs) or of LM3-Aldob cells; anti-Flag or anti-Myc affinity gel or anti-Akt1 antibody with Protein A/G beads, overnight at 4°C, washed 4 times; in some panels cells serum-starved then 0.1 μM insulin or 100 ng/ml EGF, or MK2206 (1 μM) for 24 hours; remark: listed apart in the source
[4] = target: Akt1, endogenous in human liver tissue (human (endogenous in liver tissue)) (UniProt P31749); test: co-IP; endogenous proteins in lysates of 2 pairs of human HCC tumor and adjacent normal liver tissues; anti-Aldob and anti-Akt1 IP, IgG as negative control
GST-Akt1 = GST-Akt1 (UniProt P31749); test: pull-down; GST pull-down: recombinant GST-Akt1 or GST incubated with His-Aldob in binding buffer (25 mM Tris-HCl, 200 mM NaCl, 1 mM EDTA, 0.5% NP-40, BSA, 1 mM DTT, pH 7.3), Glutathione Sepharose 4B overnight; both purified
[5] = target: Akt1, endogenous in mouse liver (mouse (endogenous in liver tissue)) (UniProt P31750); test: co-IP; endogenous proteins in liver tissue lysates of WT and ALDOB KO mice; anti-Aldob or anti-Akt1 antibody overnight at 4°C, Protein A/G Sepharose beads, IgG as negative control

- binding (Flag-Aldob [1]): binds
Molecule: Akt1, endogenous in Huh7 cells (from UniProt P31749 1-480)

- binding (Flag-Aldob [1]): binds
Molecule: Akt1-S473A (from UniProt P31749 1-480)

- binding (Flag-Aldob [1]): binds
Molecule: Myc-Akt1 (from UniProt P31749 1-480)

- binding (Flag-Aldob [1]): binds
Molecule: Akt1-T308A (from UniProt P31749 1-480)

- binding [2]: binds
Molecule: Akt1, endogenous in LM3 cells (from UniProt P31749 1-480)

- binding (Myc-Akt1): no binding
B1: His-Aldob a.a. 1-155 (domain or fragment, UniProt P05062 1-155)
chain: MAHRFPALTQEQKKELSEIAQSIVANGKGILAADESVGTMGNRLQRIKVENTEENRRQFREILFSVDSSINQSIGGVILFHETLYQKDSQGKLFRNILKEKGIVVGIKLDQGGAPLAGTNKETTIQGLDGLSERCAQYKKDGVDFGKWRAVLRIA

- binding (Flag-Aldob [3]): no binding
B2: phosphoinositide-dependent kinase 1 (PDK1) (protein, UniProt O15530 1-556)
chain: MARTTSQLYDAVPIQSSVVLCSCPSPSMVRTQTESSTPPGIPGGSRQGPAMDGTAAEPRPGAGSLQHAQPPPQPRKKRPEDFKFGKILGEGSFSTVVLARELATSREYAIKILEKRHIIKENKVPYVTRERDVMSRLDHPFFVKLYFTFQDDEKLYFGLSYAKNGELLKYIRKIGSFDETCTRFYTAEIVSALEYLHGKGIIHRDLKPENILLNEDMHIQITDFGTAKVLSPESKQARANSFVGTAQYVSPELLTEKSACKSSDLWALGCIIYQLVAGLPPFRAGNEYLIFQKIIKLEYDFPEKFFPKARDLVEKLLVLDATKRLGCEEMEGYGPLKAHPFFESVTWENLHQQTPPKLTAYLPAMSEDDEDCYGNYDNLLSQFGCMQVSSSSSSHSLSASDTGLPQRSGSNIEQYIHDLDSNSFELDLQFSEDEKRLLLEKQAGGNPWHQFVENNLILKMGPVDKRKGLFARRRQLLLTEGPHLYYVDPVNKVLKGEIPWSQELRPEAKNFKTFFVHTPNRTYYLMDPSGNAHKWCRKIQEVWRQRYQSHPDAAVQ

- binding (Flag-Aldob [3]): no binding
B3: regulatory subunit of PP2A (PP2A-B55α) (protein, UniProt P63151 1-447)
chain: MAGAGGGNDIQWCFSQVKGAVDDDVAEADIISTVEFNHSGELLATGDKGGRVVIFQQEQENKIQSHSRGEYNVYSTFQSHEPEFDYLKSLEIEEKINKIRWLPQKNAAQFLLSTNDKTIKLWKISERDKRPEGYNLKEEDGRYRDPTTVTTLRVPVFRPMDLMVEASPRRIFANAHTYHINSISINSDYETYLSADDLRINLWHLEITDRSFNIVDIKPANMEELTEVITAAEFHPNSCNTFVYSSSKGTIRLCDMRASALCDRHSKLFEEPEDPSNRSFFSEIISSISDVKFSHSGRYMMTRDYLSVKIWDLNMENRPVETYQVHEYLRSKLCSLYENDCIFDKFECCWNGSDSVVMTGSYNNFFRMFDRNTKRDITLEASRENNKPRTVLKPRKVCASGKRKKDEISVDSLDFNKKILHTAWHPKENIIAVATTNNLYIFQDKVN

- binding (Myc-Akt1): binds weakly
B4: His-Aldob R304A (protein, UniProt P05062 1-364)
chain: MAHRFPALTQEQKKELSEIAQSIVANGKGILAADESVGTMGNRLQRIKVENTEENRRQFREILFSVDSSINQSIGGVILFHETLYQKDSQGKLFRNILKEKGIVVGIKLDQGGAPLAGTNKETTIQGLDGLSERCAQYKKDGVDFGKWRAVLRIADQCPSSLAIQENANALARYASICQQNGLVPIVEPEVIPDGDHDLEHCQYVTEKVLAAVYKALNDHHVYLEGTLLKPNMVTAGHACTKKYTPEQVAMATVTALHRTVPAAVPGICFLSGGMSEEDATLNLNAINLCPLPKPWKLSFSYGAALQASALAAWGGKAANKEATQEAFMKRAMANCQAAKGQYVHTGSSGAASTQSLFTACYTY

- binding (Myc-Akt1): binds
B5: His-Aldob R46A (protein, UniProt P05062 1-364)
chain: MAHRFPALTQEQKKELSEIAQSIVANGKGILAADESVGTMGNRLQAIKVENTEENRRQFREILFSVDSSINQSIGGVILFHETLYQKDSQGKLFRNILKEKGIVVGIKLDQGGAPLAGTNKETTIQGLDGLSERCAQYKKDGVDFGKWRAVLRIADQCPSSLAIQENANALARYASICQQNGLVPIVEPEVIPDGDHDLEHCQYVTEKVLAAVYKALNDHHVYLEGTLLKPNMVTAGHACTKKYTPEQVAMATVTALHRTVPAAVPGICFLSGGMSEEDATLNLNAINLCPLPKPWKLSFSYGRALQASALAAWGGKAANKEATQEAFMKRAMANCQAAKGQYVHTGSSGAASTQSLFTACYTY

- binding (Myc-Akt1): binds
B6: His-Aldob R149A (protein, UniProt P05062 1-364)
chain: MAHRFPALTQEQKKELSEIAQSIVANGKGILAADESVGTMGNRLQRIKVENTEENRRQFREILFSVDSSINQSIGGVILFHETLYQKDSQGKLFRNILKEKGIVVGIKLDQGGAPLAGTNKETTIQGLDGLSERCAQYKKDGVDFGKWAAVLRIADQCPSSLAIQENANALARYASICQQNGLVPIVEPEVIPDGDHDLEHCQYVTEKVLAAVYKALNDHHVYLEGTLLKPNMVTAGHACTKKYTPEQVAMATVTALHRTVPAAVPGICFLSGGMSEEDATLNLNAINLCPLPKPWKLSFSYGRALQASALAAWGGKAANKEATQEAFMKRAMANCQAAKGQYVHTGSSGAASTQSLFTACYTY

- binding [4]: binds
B7: aldolase B (Aldob), endogenous in human liver tissue (protein, UniProt P05062 1-364)
chain: MAHRFPALTQEQKKELSEIAQSIVANGKGILAADESVGTMGNRLQRIKVENTEENRRQFREILFSVDSSINQSIGGVILFHETLYQKDSQGKLFRNILKEKGIVVGIKLDQGGAPLAGTNKETTIQGLDGLSERCAQYKKDGVDFGKWRAVLRIADQCPSSLAIQENANALARYASICQQNGLVPIVEPEVIPDGDHDLEHCQYVTEKVLAAVYKALNDHHVYLEGTLLKPNMVTAGHACTKKYTPEQVAMATVTALHRTVPAAVPGICFLSGGMSEEDATLNLNAINLCPLPKPWKLSFSYGRALQASALAAWGGKAANKEATQEAFMKRAMANCQAAKGQYVHTGSSGAASTQSLFTACYTY

- binding (Myc-Akt1): binds
- binding (GST-Akt1): binds
B8: His-Aldob (protein, UniProt P05062 1-364)
chain: MAHRFPALTQEQKKELSEIAQSIVANGKGILAADESVGTMGNRLQRIKVENTEENRRQFREILFSVDSSINQSIGGVILFHETLYQKDSQGKLFRNILKEKGIVVGIKLDQGGAPLAGTNKETTIQGLDGLSERCAQYKKDGVDFGKWRAVLRIADQCPSSLAIQENANALARYASICQQNGLVPIVEPEVIPDGDHDLEHCQYVTEKVLAAVYKALNDHHVYLEGTLLKPNMVTAGHACTKKYTPEQVAMATVTALHRTVPAAVPGICFLSGGMSEEDATLNLNAINLCPLPKPWKLSFSYGRALQASALAAWGGKAANKEATQEAFMKRAMANCQAAKGQYVHTGSSGAASTQSLFTACYTY

- binding (Myc-Akt1): binds
B9: His-Aldob K147A (protein, UniProt P05062 1-364)
chain: MAHRFPALTQEQKKELSEIAQSIVANGKGILAADESVGTMGNRLQRIKVENTEENRRQFREILFSVDSSINQSIGGVILFHETLYQKDSQGKLFRNILKEKGIVVGIKLDQGGAPLAGTNKETTIQGLDGLSERCAQYKKDGVDFGAWRAVLRIADQCPSSLAIQENANALARYASICQQNGLVPIVEPEVIPDGDHDLEHCQYVTEKVLAAVYKALNDHHVYLEGTLLKPNMVTAGHACTKKYTPEQVAMATVTALHRTVPAAVPGICFLSGGMSEEDATLNLNAINLCPLPKPWKLSFSYGRALQASALAAWGGKAANKEATQEAFMKRAMANCQAAKGQYVHTGSSGAASTQSLFTACYTY

- binding (Myc-Akt1): no binding
B10: His-Aldob a.a. 1-240 (domain or fragment, UniProt P05062 1-240)
chain: MAHRFPALTQEQKKELSEIAQSIVANGKGILAADESVGTMGNRLQRIKVENTEENRRQFREILFSVDSSINQSIGGVILFHETLYQKDSQGKLFRNILKEKGIVVGIKLDQGGAPLAGTNKETTIQGLDGLSERCAQYKKDGVDFGKWRAVLRIADQCPSSLAIQENANALARYASICQQNGLVPIVEPEVIPDGDHDLEHCQYVTEKVLAAVYKALNDHHVYLEGTLLKPNMVTAGHAC

- binding [5]: binds
B11: aldolase B (Aldob), endogenous in mouse liver (protein, UniProt Q91Y97 1-364)
chain: MAHRFPALTPEQKKELSEIAQRIVANGKGILAADESVGTMGNRLQRIKVENTEENRRQFRELLFSVDNSISQSIGGVILFHETLYQKDSQGNLFRNVLKEKGIVVGIKLDQGGAPLAGTNKETTIQGLDGLSERCAQYKKDGVDFGKWRAVLRIADQCPSSLAIQENANALARYASICQQNGLVPIVEPEVLPDGDHDLEHCQYVSEKVLAAVYKALNDHHVYLEGTLLKPNMVTAGHACTKKYTPEQVAMATVTALHRTVPAAVPGICFLSGGMSEEDATLNLNAINRCPLPRPWKLSFSYGRALQASALAAWGGKAANKKATQEAFMKRAMANCQAAQGQYVHTGSSGAAATQSLFTASYTY
